The results in this text go back to patent US20230279064A1 (published 2023).

For assay [1], the target named is T1, Aβ1-42 fibers (human, UniProt P05067 fragment).
T1 construct: domain: Aβ1-42; also called fAβ42; Aβ42 fibers
Nature of the assay: SPR. A general note: SPR reads the build-up and loss of mass on a sensor chip optically.

The target of assay [2] is T2, LC lambda_1 (variable + constant).
T2 construct: also called immunoglobulin light chain (LC) aggregates
Kind of assay: ELISA on aggregates. For orientation: An ELISA detects its analyte on a solid surface through an enzyme-linked reagent.

For a further assay, the target named is T3, LC lambda_1 (variable).
T3 construct: also called immunoglobulin light chain (LC) aggregates
Kind of assay: ELISA on aggregates.

In a further assay the target is Wild-type TTR aggregates (UniProt P02766). Nature of the assay: ELISA on aggregates.
In a further assay the target is T4, LC lambda_2 (variable).
T4 construct: also called immunoglobulin light chain (LC) aggregates
Nature of the assay: ELISA on aggregates.

For assay [3], the target named is T1, Aβ1-42 fibers. Kind of assay: ELISA on coated fibers.
T1 sequence (P05067 672-713 limits assumed): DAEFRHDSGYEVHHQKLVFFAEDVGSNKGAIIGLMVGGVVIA
Assay [4] deals with T5, TauK18P301L fibers (human, UniProt P10636-8 244-372).
T5 construct: range 244-372; also called fTauKL; TauKL
Nature of the assay: ELISA on coated fibers.

In assay [5] the target is T5, TauK18P301L fibers. Nature of the assay: ELISA on coated TauK18P301L fibers; column head 'fTauKL Binding (nM)'.
T5 sequence (P10636 561-689 P618L limits assumed): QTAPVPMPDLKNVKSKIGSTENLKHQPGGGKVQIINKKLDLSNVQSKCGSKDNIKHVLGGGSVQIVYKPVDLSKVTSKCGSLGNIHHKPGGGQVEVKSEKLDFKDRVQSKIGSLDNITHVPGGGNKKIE
Assay [6] has as its target T1, Aβ1-42 fibers. Kind of assay: ELISA on coated Aβ42 fibers; column head 'fAβ42 Binding (nM)'.
The target in assay [7] is T1, Aβ1-42 fibers. Kind of assay: cell-based or functional assay.

Numbering of substitutions follows the chain as printed.

B1: open-stabilized GAIM-Ig fusion protein PB108 (Fc fusion)
chain: MAETVESCLAKPHTENSFTNVWKEGDSRYANYEGCLWNAGGVVVCTGDETQCYGHWVPIGLAIPENEGGGSEGGGSEGGGSEGGGTKPPEYGDTPIPGYTYINPLDGTYPPGTEQNPANPNPSLEESQPLNTFMFQGNRFRNRQGALTVYTGTFTQGTDPVKTYYQYTPVSSRAMYDAYWNGKFRDCAFHSGFNEDPFVCEYQGQSSDLPQPPANAGGESGGGSGGGSEGGGSEGGGSEGGGSEGGGSGGGSGSGARS[letters of human IgG1 Fc not shown]
notes: also called representative open-stabilized GAIM-Ig fusion
Regarding B1, in the assay with Aβ1-42 fibers [1], the Kd was determined as 0.5 nM. Further, the EC50 in [2] is 24 nM; in the assay with LC lambda_1 (variable) it was 1.3 nM; in the assay with Wild-type TTR aggregates, 7 nM; with LC lambda_2 (variable), 19 nM; with Aβ1-42 fibers [3], 0.8 nM; in the assay with TauK18P301L fibers [4], 14 nM. Also, the EC50 in the assay with TauK18P301L fibers [5] stood at 15 nM; with Aβ1-42 fibers [6], 1 nM. Besides, in the assay with Aβ1-42 fibers [7], the “fAβ42 Remodeling (%)” value was found to be 87%.

B2: open-stabilized GAIM-Ig fusion protein PB116 (Fc fusion)
chain: B1 chain with N142A
Turning to B2, the figures for the EC50 with TauK18P301L fibers [5] and with Aβ1-42 fibers [6] were 7 nM and 0.8 nM, respectively. Moreover, in the assay with Aβ1-42 fibers [7], the “fAβ42 Remodeling (%)” value was found to be 82%.

B3: open-stabilized GAIM-Ig fusion protein PB127 (Fc fusion)
chain: B1 chain with N38A, T50H, H55T
As to B3, a half-maximal response with Aβ1-42 fibers [6] (EC50) required 0.8 nM.

B4: open-stabilized GAIM-Ig fusion protein PB105 (Fc fusion)
chain: B1 chain with T50H, H55T
Turning to B4, the EC50 with Aβ1-42 fibers [6] turned out to be 0.8 nM.

B5: open-stabilized GAIM-Ig fusion protein PB122 (Fc fusion)
chain: B1 chain with G137N, R143V, Q144N, A146V
Consider B5, for which the EC50 with TauK18P301L fibers [5] is 24 nM; with Aβ1-42 fibers [6], 1.3 nM. Also, in the assay with Aβ1-42 fibers [7], the “fAβ42 Remodeling (%)” value is 80%.

B6: open-stabilized GAIM-Ig fusion protein PB110 (Fc fusion)
chain: B1 chain with T50H, H55T, G137N, N142A, R143V, Q144N, A146V
With B6, the values for the EC50 in the assay with TauK18P301L fibers [5] and with Aβ1-42 fibers [6] were 7.6 nM and 0.9 nM, respectively. Besides, the “fAβ42 Remodeling (%)” value in the assay with Aβ1-42 fibers [7] stood at 92%.

B7: open-stabilized GAIM-Ig fusion protein PB114 (Fc fusion)
chain: B1 chain with G137N, N142A, R143V, Q144N, A146V
For B7, the EC50 with TauK18P301L fibers [5] was determined as 8.7 nM; with Aβ1-42 fibers [6], 0.9 nM. In addition, the “fAβ42 Remodeling (%)” value in the assay with Aβ1-42 fibers [7] was found to be 86%.

B8: open-stabilized GAIM-Ig fusion protein PB109 (Fc fusion)
chain: B1 chain with T50H, H55T, N142A
B8: the EC50 in the assay with TauK18P301L fibers [5] was 5.2 nM; with Aβ1-42 fibers [6], 0.8 nM. Besides, the “fAβ42 Remodeling (%)” value in the assay with Aβ1-42 fibers [7] worked out at 82%.

B9: GAIM-Ig fusion protein PB120 (Fc fusion)
chain: MAETVESCLAKPHTENSFTNVWKDDKTLDRYANYEGCLWNAGGVVVCTGDETQCYGTWVPIGLAIPENEGGGSEGGGSEGGGSEGGGTKPPEYGDTPIPGYTYINPLDGTYPPGTEQNPANPNPSLEESQPLNTFMFQNNRFRNRQGALTVYTGTFTQGTDPVKTYYQYTPVSSRAMYDAYWNGKFRDCAFHSGFNEDPFVCEYQGQSSDLPQPPANAGGESGGGSGGGSEGGGSEGGGSEGGGSEGGGSGGGSGSGARS[letters of human IgG1 Fc not shown]
notes: also called control scaffold; GAIM scaffold
On to B9, for which the values for the EC50 in the assay with Wild-type TTR aggregates, in the assay with Aβ1-42 fibers [3] and in the assay with TauK18P301L fibers [4] were 105 nM, 18 nM and 59 nM, respectively.

What is called Kd is a measure of binding affinity in units of concentration. Low values mean tighter binding, high ones weaker binding. The term EC50 denotes the concentration needed to bring the measured effect to its halfway point.
